Experimental data from article PMC4336329 (PLoS ONE, 2015).
About 14,000 (4.5%) of roughly 310,000 compounds showed an effect of 50% or more. Effects have a minus sign here. This is one part of the list.

The compounds below were run against human ether-à-go-go-related gene (hERG) potassium channel (human, UniProt Q12809) (assay: primary screen, population patch clamp on CHO cells stably expressing hERG).
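Further: peak tail current of the secondary pulse compared with the same well before compound.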

Sequence of human ether-à-go-go-related gene (hERG) potassium channel (Q12809 whole entry, looked up): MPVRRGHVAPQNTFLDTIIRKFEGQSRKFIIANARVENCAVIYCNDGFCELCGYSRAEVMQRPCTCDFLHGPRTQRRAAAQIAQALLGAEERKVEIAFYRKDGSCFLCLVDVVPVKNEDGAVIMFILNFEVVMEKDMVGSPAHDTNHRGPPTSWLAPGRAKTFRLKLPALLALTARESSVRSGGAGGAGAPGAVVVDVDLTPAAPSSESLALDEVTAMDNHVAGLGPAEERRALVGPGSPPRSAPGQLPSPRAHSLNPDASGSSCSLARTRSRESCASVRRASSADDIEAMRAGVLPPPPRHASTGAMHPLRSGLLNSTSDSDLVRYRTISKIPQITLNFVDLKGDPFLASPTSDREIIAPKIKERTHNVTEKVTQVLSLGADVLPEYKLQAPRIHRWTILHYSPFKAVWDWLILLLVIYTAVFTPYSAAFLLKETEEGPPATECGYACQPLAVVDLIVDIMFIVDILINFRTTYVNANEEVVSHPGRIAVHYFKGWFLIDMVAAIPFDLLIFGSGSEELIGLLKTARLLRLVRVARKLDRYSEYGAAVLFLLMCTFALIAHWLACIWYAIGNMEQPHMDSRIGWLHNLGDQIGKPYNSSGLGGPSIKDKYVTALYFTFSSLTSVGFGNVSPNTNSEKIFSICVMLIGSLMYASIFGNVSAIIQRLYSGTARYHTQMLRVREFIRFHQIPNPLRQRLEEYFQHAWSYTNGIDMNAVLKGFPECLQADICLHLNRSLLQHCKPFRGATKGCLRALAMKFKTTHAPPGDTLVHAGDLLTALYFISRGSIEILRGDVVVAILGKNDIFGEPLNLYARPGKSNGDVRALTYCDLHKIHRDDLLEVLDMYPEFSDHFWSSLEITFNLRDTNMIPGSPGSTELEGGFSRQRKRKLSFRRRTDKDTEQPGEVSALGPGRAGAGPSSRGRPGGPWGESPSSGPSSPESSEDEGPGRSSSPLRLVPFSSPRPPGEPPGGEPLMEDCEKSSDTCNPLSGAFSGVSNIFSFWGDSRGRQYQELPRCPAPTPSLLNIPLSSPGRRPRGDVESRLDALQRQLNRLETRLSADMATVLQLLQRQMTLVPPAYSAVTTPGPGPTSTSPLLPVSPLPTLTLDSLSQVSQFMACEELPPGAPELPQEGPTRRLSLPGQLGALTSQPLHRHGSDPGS

SMILES	hERG current change (%, negative = inhibition) at 10uM
CCNc1ccc(C2(O)C(=O)c3ccccc3C2=O)cc1	12.6%
COc1nc(OC)nc(Oc2ccc([N+](=O)[O-])cc2Cl)n1	12.3%
O=C(c1cccc(F)c1)N(Cc1nc2ccccc2c(=O)[nH]1)C1CCCC1	-30.4%
CC(C)(C)C(=O)COc1ccccc1[N+](=O)[O-]	-0.00642%
O=C1Nc2ccccc2/C1=C\c1cccn1-c1ccc(OC(F)(F)F)cc1	5.54%
O=c1[nH]c(=S)n(Cc2ccc(F)cc2)c(O)c1C=NCc1ccc2c(c1)OCO2	20.8%
Cc1nnc(SCC(=O)N2CCc3ccccc3C2)n1-c1ccccc1	-23.6%
CCC(C)(C)NC(=O)C(c1ccc(C)cc1)N(CC1CCCO1)C(=O)CNC(=O)c1cccs1 (stereo not drawn)	-4.98%
CCCn1c(SCC(=O)NC2CCCCC2)nnc1-c1ccco1	-20.3%
Cn1c(SCC(=O)NCCc2ccc(S(N)(=O)=O)cc2)nc2ccccc2c1=O	3.46%
COc1cccc(CSc2nnc(CSc3nc4nc(C)cc(C)n4n3)s2)c1	-54.4%
Cc1ccc(C(=O)NNC(=O)c2csc(N3CCOCC3)n2)s1	-6.58%
C[C@H]1NC(=O)[C@@]2(C)[C@@H](c3ccccc3)[C@H]3COc4ccccc4[C@H]3N2C1=O	4.02%
O=c1[nH]c(=O)n(-c2cccc3ccccc23)c(O)c1/C=N/N1CCCCC1c1cccnc1 (stereo not drawn)	12.2%
O=C(COC(=O)c1ccc(O)cc1)Nc1cc(S(=O)(=O)N2CCOCC2)ccc1Cl	-21%
O=c1[nH]c(-c2ccccc2O)nc2c1CCCC2	12.8%
CCn1c(SCC(=O)Nc2cc(C(C)(C)C)nn2-c2ccccc2)nnc1-c1cccs1	-47.7%
Cn1c(CCNC(=O)C2CCCCC2)nc2cc([N+](=O)[O-])ccc21	-45.3%
O=C(c1cc(-c2cccs2)nc2ccccc12)N1CCN(S(=O)(=O)c2ccccc2)CC1	-5.65%
COc1ccc(CC(=O)OCC(=O)NCc2ccc(Cl)cc2)cc1	15.5%
CC1CCCCN1S(=O)(=O)c1ccccc1[N+](=O)[O-] (stereo not drawn)	6.98%
COc1ccc(CCNC(=O)CNC(=O)c2nn(-c3ccc(OC)c(OC)c3)c(=O)c3ccccc23)cc1OC	18.5%

SMILES	hERG current change (%, negative = inhibition) at 10uM
CC(C)[C@H](NC(=O)N1c2ccccc2NC(=O)[C@@H]1C(C)C)C(=O)N[C@@H](Cc1ccccc1)C(=O)O	11.8%
COc1ccc(CCN2CC(C(=O)NCc3nc4ccccc4n3C)CCC2=O)cc1 (stereo not drawn)	-15.6%
COCCCNC1CS(=O)(=O)CC1O.Cl (stereo not drawn)	23.4%
COc1ccc(-c2nn(-c3ccccc3)cc2/C=C\C(=O)Nc2ccc(C(=O)O)cc2)cc1	21%
COc1cc(Cl)cc(C2NC(=O)NC(C)=C2C(C)=O)c1OCC(=O)O (stereo not drawn)	-1.87%
CCOC(=O)C1CCN(C(=O)CN(c2ccc(OC)cc2)S(=O)(=O)c2c(C)noc2C)CC1	-21.2%
CCc1nc(N)c(C#N)c(-c2ccncc2)c1C	0.543%
CCOC(=O)c1ccc(NC(=O)CNC(=O)c2ccccc2)cc1	2.53%
Cc1cc(N/N=C/c2c[nH]c3ccccc23)c2ccccc2n1	14.2%
O=C(NC1CCCCC1)c1cc([N+](=O)[O-])[nH]n1	-21.2%
CCOC(=O)C1=C(C)NC(C)=C(C(=O)OCC)C1c1ccc(C)o1	-5.8%
COc1ccc(NC(=O)N2CCN(C(=O)C(Cc3ccc(F)cc3)NC(C)=O)CC2)cc1 (stereo not drawn)	-9.37%
CCOC(=O)CCC(NC(=O)CC(=O)NC(CCC(=O)OCC)C(=O)OCC)C(=O)OCC (stereo not drawn)	17.3%
Cc1nc2c(cnn2-c2ccccc2)c(=O)[nH]1	28.7%
CCc1ccc(-c2cc(C)no2)cc1S(=O)(=O)N1CCOc2ccccc21	-6.97%
N=c1c(S(=O)(=O)c2ccc(Br)cc2)cc2c(=O)n3ccccc3nc2n1Cc1ccco1	7.31%
O=[N+]([O-])c1ccc(O)c(-c2cc(C(F)(F)F)nc(-c3ccccc3)n2)c1	15.5%
O=C(NCCc1ccccc1)C(=O)NCC1OCCN1S(=O)(=O)c1ccc(Br)cc1 (stereo not drawn)	0.157%
O=C(Nc1ccc(NC(=O)c2cccs2)cc1)c1ccc2c(c1)OCCO2	15.6%
COC(=O)C(C(=O)OC)C(C)C(C(=O)OC)C(=O)OC	9.86%
CC(C)Oc1cccc(C(=O)NC(=S)NCc2cccnc2)c1	-28%
Cc1nn2c(NCCOCCO)c3c(nc2c1-c1ccccc1)CCC3	-50.2%

SMILES	hERG current change (%, negative = inhibition) at 10uM
Cc1cc(C)c(OCC(=O)NCC(C)(C)N2CCOCC2)c(C)c1	-32.7%
CNC(=O)CN(c1cccc(Br)c1)S(C)(=O)=O	-11.4%
COc1ccc(NCc2nnc(SCC(=O)N3CCCc4ccccc43)n2C)cc1	-20.8%
CCOc1cc(C(=O)NC(=S)Nn2cnnc2)cc(OCC)c1OCC	17.2%
S=C1NCN(Cc2cccnc2)CN1Cc1ccccc1	22.8%
O=S(=O)(c1ccc(F)cc1)N1CCN(C(=S)NCC2CCCO2)CC1 (stereo not drawn)	-30.8%
COc1ccc(/C=N/NC(=O)c2sc3nc(C)cc(C)c3c2N)cc1	16.4%
COc1ccc(-c2csc(NCCc3nc4cc(C(=O)NCCCO)ccc4n3Cc3ccc(C)cc3)n2)cc1	7.19%
N#CCSc1nnc2ccc3ccccc3n12	2.46%
Cl.N=C(N)SCc1ccccc1Cl	31%
CCOc1ccc2cc(S(=O)(=O)n3ccnc3C)ccc2c1	10.1%
O=C(NCC(=O)N(c1ccccc1)C(C(=O)NC1CCCC1)c1cccnc1)c1cccs1 (stereo not drawn)	7.61%
CC1(C)CN(c2ccccc2)N(C(=O)c2ccc(F)cc2)C1=O	-1.02%
Cc1cccc(S(=O)(=O)CC(=O)Nc2nc(-c3ccccc3)cs2)c1	-13.8%
CCC1CCCCN1C(=O)c1cccc(S(=O)(=O)Nc2cc(C(F)(F)F)ccc2Cl)c1 (stereo not drawn)	2.59%
CC(OC(=O)c1ccccc1NCCO)C(=O)NCC(=O)Nc1ccc(F)c(F)c1F (stereo not drawn)	8.89%
COc1ccc(Cl)cc1NC(=O)COc1cccc(-n2cnnn2)c1	10.3%
CCC(CC)C(=O)NC12CC3CC(CC(C3)C1)C2	5.15%
CS(=O)(=O)c1ccc2nc(NC(=O)CN3CCN(Cc4ccccc4)CC3)sc2c1	-39.8%
Fc1ccccc1-c1cc2ncccc2cn1	5.27%
COc1cccc(C(=O)NC(c2ccccc2)C2CCCC2)c1 (stereo not drawn)	6.54%
NC(=O)C1CCN(Cc2nc3c(Br)cc(Br)cc3c(=O)[nH]2)CC1	-35.8%

SMILES	hERG current change (%, negative = inhibition) at 10uM
O=C(CCn1c(=O)sc2ccccc21)Nc1ccon1	1.91%
Cc1ccc(C(=O)c2cnc3ccccc3c2-c2ccccc2)cc1	-5.7%
COc1ccc(Nc2nc(N)c3ccccc3n2)c(OC)c1.Cl	-14.9%
CCn1nnc2cc(C(=O)Nc3cc(S(C)(=O)=O)ccc3Cl)ccc21	-3.2%
CN(CC(=O)Nc1ccccc1Cl)C(=O)COC(=O)/C=C/c1cccs1	-13.5%
Cn1c(=O)c2c(nc(N/N=C/c3ccc(OC(=O)c4ccco4)cc3)n2Cc2ccc(F)cc2)n(C)c1=O	-5.07%
C=CCn1nc(-c2ccccc2)cc1C(=O)OCC	6.85%
CC1CCc2sc(C(=O)N=Nc3c(O)[nH]c4ccccc34)cc2C1 (stereo not drawn)	13.7%
O=C(COc1ccc(Cl)cc1)Nc1ccc(C(=O)NCc2cccnc2)cc1	-36.8%
Cn1c(SCc2ccccc2F)nnc1-c1cnccn1	7.73%
Cc1[nH]c2ccccc2c1-c1csc(NC(=O)CSCCO)n1	-3.86%
O=C(Cc1cccs1)N/N=C\c1ccc(O)cc1	14.5%
COc1ccc2[nH]c(=O)c(CN(C)C(=O)c3cccs3)cc2c1	-22.9%
COc1ccc(-c2nnn(-c3ccc(Cl)cc3Cl)c2N)cc1	-29.8%
COc1ccccc1OCc1nc(C#N)c(NCCCn2ccnc2)o1	6.7%
CN1C[C@@H]2C(c3ccc(Cl)nc3)C3(c4ccc(C#N)cc4)CC2(C3)[C@H]1c1ccccc1 (stereo partly drawn)	-54.9%
C[C@H](C(=O)NCc1ccccc1)C(=O)c1ccccc1	18%
CCc1nnc(NC(=O)c2sc3nc4cc(C)ccc4cc3c2N)s1	13%
CCOc1cc(CNCCO)cc(Br)c1OCc1ccccc1.Cl	-2.35%
c1ccc(CNc2nc(-c3cccs3)nc3ccccc23)nc1	-28.6%
CC(=O)Nc1ccc(NC2=Nc3ccccc3N3C2=Nc2c(c(C)nn2-c2ccccc2)C3c2ccccc2)cc1 (stereo not drawn)	1.09%
